Potency data for 92 compounds are collected here from PubChem BioAssay AID360 (National Center for Advancing Translational Sciences (NCATS), 2006).

Screen size: about 48,000 compounds; about 550 (1.1%) were called active. Another 4% or so got no clear call; they are omitted. Rule as the data show it: active = potency below about 15 µM; inconclusive = mostly about 16 µM to 33 µM; inactive = weaker than that. The list shows a part of the results.
Potency is read from the fitted curve at half-maximal effect.

The target in this assay is Lysosomal acid glucosylceramidase (Homo sapiens) (UniProt P04062). Nature of the assay: Glucocerebrosidase.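 Also: the screen sought inhibitors.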 Particulars: purified enzyme, resorufin glucoside fluorescence (screen aimed at inhibitors), 20 min. An outline of the steps: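 Normal human glucocerebrosidase (0.2 nM final) was assayed with resorufin β-D-glucopyranoside (30 uM final) in 50mM citric acid/KH2PO4, 10mM sodium taurocholate, 0.01% tween-20, pH 5.9. Compounds were titrated; fluorescence (Ex 548, Em 600) read after 20 min at RT.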
UniProt P04062, sequence (P04062 whole entry, looked up): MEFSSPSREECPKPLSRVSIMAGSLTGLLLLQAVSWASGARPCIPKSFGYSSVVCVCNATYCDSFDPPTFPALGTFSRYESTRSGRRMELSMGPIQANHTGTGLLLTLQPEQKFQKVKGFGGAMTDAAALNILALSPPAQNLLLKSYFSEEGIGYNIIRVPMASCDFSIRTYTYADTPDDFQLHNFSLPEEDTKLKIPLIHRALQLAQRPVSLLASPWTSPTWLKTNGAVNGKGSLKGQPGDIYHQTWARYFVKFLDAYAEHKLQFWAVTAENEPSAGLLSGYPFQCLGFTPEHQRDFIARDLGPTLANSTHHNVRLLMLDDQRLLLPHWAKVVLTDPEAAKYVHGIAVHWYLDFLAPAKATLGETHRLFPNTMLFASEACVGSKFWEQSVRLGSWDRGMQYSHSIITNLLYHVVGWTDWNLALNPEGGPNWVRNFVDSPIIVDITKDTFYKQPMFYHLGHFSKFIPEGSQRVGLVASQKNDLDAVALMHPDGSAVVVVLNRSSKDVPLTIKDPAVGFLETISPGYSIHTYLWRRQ
`COCCCNC(=O)CSc1nc2ccccc2c(=O)n1CCCC(=O)NCC1CCCO1` (configuration not stated): the Potency is inactive: > 76.9 µM. `CCCN1C(=O)c2ccc(C(=O)Nc3nccs3)cc2C1=O`: the Potency was inactive: > 76.9 µM. Take `N#Cc1ccc(CSc2nnc(-c3cnccn3)o2)cc1`: the Potency was inactive: > 76.9 µM.

Take `COCCN1CN(S(=O)(=O)c2ccccc2)c2nc3ccccc3nc21`: the Potency is inactive: > 76.9 µM. Next, `NC(=O)C1CCCN(S(=O)(=O)c2ccc(Br)cc2)C1` (configuration not stated): inactive: > 76.9 µM; `CCOC(=O)C1CCN(Cc2c(O)ccc3ccccc23)CC1`: inactive: > 76.9 µM; `c1ccc(-n2cnnc2SCc2nc3ccccc3s2)cc1`: inactive: > 76.9 µM. `COc1ccc(S(=O)(=O)Nc2nnc(C(C)C)s2)cc1`: the Potency is inactive: > 76.9 µM. Next, `O=C(Cc1c(C(=O)O)[nH]c2ccccc12)NCCN1CCN(c2cccc(Cl)c2)CC1`: inactive: > 76.9 µM. Take `CCCCCn1c(CN2CCN(Cc3ccccc3)CC2)nc2c1c(=O)n(C)c(=O)n2C`: the Potency was inactive: > 76.9 µM.

Take `CCc1ccc(OCC(O)CN2CCN(c3ccccc3)CC2)cc1` (configuration not stated): the Potency was inactive: > 76.9 µM.

Turning to `CCOC(=O)C(NC(=O)CC)(Nc1ccc(S(=O)(=O)Nc2ncccn2)cc1)C(F)(F)F` (configuration not stated), the Potency was inactive: > 76.9 µM. With `CC1C2CC(C(S(=O)(=O)N3CCOCC3)C2=O)C1(C)C` (configuration not stated), the Potency was inactive: > 76.9 µM. Next, `Cc1ccc(C(=O)Nc2cccc(C(=O)NCc3ccco3)c2)cc1`: inactive: > 76.9 µM; `Cc1nc(NC(=O)c2ccccc2)sc1-c1csc(N)n1`: inactive: > 76.9 µM; `COc1ccc(-c2csc(Cc3nnc4n3CCCCC4)n2)cc1OC`: inactive: > 76.9 µM.

For the compound `CCCCCOc1ccc(C2C(C(C)=O)=C(C)Nc3ncnn32)cc1OC` (configuration not stated), the Potency was inactive: > 76.9 µM. The figure for `NC(=O)C1CCN(c2nc(C3CC3)nc3c2nnn3Cc2ccccc2Cl)CC1` is inactive: > 76.9 µM.

As for `CC(C)Cn1c(=O)c(C(=O)Nc2cnccn2)c(O)c2ccccc21`, the Potency is inactive: > 76.9 µM.

Turning to `CN1CCN(CCC(=O)Nc2ccccc2Cl)CC1`, the Potency was inactive: > 76.9 µM. Take `O=C(Cn1nnc2ccccc2c1=O)Nc1cc(C(F)(F)F)ccc1N1CCOCC1`: the Potency was inactive: > 76.9 µM.

As for `N#Cc1nc(-c2ccc(OCc3ccc(Cl)cc3)cc2)oc1NCCCn1ccnc1`, the Potency result is “inactive”.

For the compound `O=C(Nc1ccccc1-c1nnn(CC(=O)N2CCN(c3ccccc3)CC2)n1)c1cccs1`, the Potency was inactive: > 76.9 µM. For the compound `N#CC12C(N)=NC3(OCCO3)C1(C#N)C1=C(CCC1)NC2c1ccccc1` (configuration not stated), the Potency was inactive: > 76.9 µM. Consider `CC(C)C(c1nnnn1Cc1ccccc1)N1CCN(Cc2ccc3c(c2)OCO3)CC1` (configuration not stated), for which the Potency was inactive: > 76.9 µM.

On to `CCCCN(CCCNC(=O)c1c(C)cc(=O)oc1C)c1ccccc1`, for which the Potency was inactive: > 76.9 µM.

On to `COCCn1c(SCC(=O)N2CCCC2)nnc1-c1ccoc1C`, for which the Potency is inactive: > 76.9 µM.

On to `C=CCn1c(SCC(N)=O)nnc1-c1ccccc1O`, for which the Potency is inactive: > 76.9 µM.

As to `COc1ccc(CCNC(=O)CSc2ncnc3c2oc2ccccc23)cc1OC`, the Potency is inactive: > 76.9 µM. Next, `O=C(CSc1nnc(COc2ccc(Cl)cc2)o1)OC1CCCCC1`: inactive: > 76.9 µM; `O=C(Cc1ccccc1)Nc1ccccc1CO`: inactive: > 76.9 µM. As to `CC(C)N(C(=O)CSc1nn2c(=O)c(C(C)(C)C)nnc2s1)c1ccccc1`, the Potency is inactive: > 76.9 µM.

Turning to `CN1C(=O)N(C)C2(c3ccccc3)NC(=O)NC12c1ccccc1` (configuration not stated), the Potency was inactive: > 76.9 µM. Take `CCc1ccccc1NS(=O)(=O)c1ccc(SC)cc1`: the Potency was inactive: > 76.9 µM. The figure for `CCOc1ccc(C(C)=O)cc1CSc1nnc(-c2cccs2)n1CC1CCCO1` (configuration not stated) is inactive: > 76.9 µM; for `O=c1[nH]nc(CSCc2ccccc2Cl)[nH]1` it is inactive: > 76.9 µM; for `CCOC(=O)N1CCN(C(=O)Nc2ccc(Cl)cc2Cl)CC1` it is inactive: > 76.9 µM. For the compound `O=C(c1cccc(-n2cnnn2)c1)N1CC=C(c2ccccc2)CC1`, the Potency was inactive: > 76.9 µM.

Take `CCc1ccc2[nH]c(=O)c(C(c3nnnn3CC3CCCO3)N3CCCc4ccccc43)cc2c1` (configuration not stated): the Potency result is “inactive”. Regarding `Cc1cc(C)cc(NCC(=O)Nc2c(C)cccc2C)c1`, the Potency was inactive: > 76.9 µM. The figure for `Cc1nc2cc(NC(=O)NCc3ccc4c(c3)OCO4)ccc2o1` is inactive: > 76.9 µM; for `CCn1c(=NC(=O)CSCC(=O)Nc2nccs2)sc2ccccc21` it is inactive: > 76.9 µM. In the case of `Cc1nc2ccccc2n1CC(=O)N1CC(=O)Nc2ccccc21`, the Potency is inactive: > 76.9 µM. The entry for `Cc1cc(Cl)c(S(=O)(=O)NC2CCCCC2)cc1OCC(=O)Nc1nncs1` is “inactive”; for `CCN(CC)CCNC(=O)Cc1nn(CC)c(=O)c2ccccc12` it is inactive: > 76.9 µM; for `CCOc1ccc(NC(=O)CCS(=O)(=O)c2cccc3nsnc23)cc1` it is inactive: > 76.9 µM.

With `Cc1cccc(OCC(O)CN2C(C)(C)CC(O)CC2(C)C)c1C` (configuration not stated), the Potency is inactive: > 76.9 µM. Next, `O=C(CC1CCS(=O)(=O)C1)Nc1ccc[nH]c1=O` (configuration not stated): inactive: > 76.9 µM; `CCCc1nc2oc3c(NCc4ccccn4)ncnc3c2c2c1COC(C)(C)C2`: inactive: > 76.9 µM.

Take `NC(=O)c1c(N)sc(=S)n1-c1ccccc1`: the Potency is inactive: > 76.9 µM. Next, `CCCOc1ccc(C(CC(=O)O)NS(=O)(=O)c2ccc(NC(C)=O)cc2)cc1` (configuration not stated): inactive: > 76.9 µM; `COc1ccc(-c2nsc(SCC(=O)Nc3cc(C)on3)n2)cc1`: inactive: > 76.9 µM; `COc1ccc2c(C(F)(F)F)cc(=O)oc2c1C`: inactive: > 76.9 µM.

`Cc1ccc2c(c1)cc(CN(Cc1ccccc1)C(=O)N(C)C)c1nnnn12`: the Potency was inactive: > 76.9 µM. Next, `CCn1c(SCC(=O)Nc2nccs2)nnc1-c1cc2cccc(OC)c2o1`: inactive: > 76.9 µM.

`Cc1onc(-c2ccccc2Cl)c1C(=O)Nc1ccc(F)c(F)c1`: the Potency result was “inactive”. Consider `COc1ccc(OC)c(NS(=O)(=O)c2ccc(SC)cc2)c1`, for which the Potency is inactive: > 76.9 µM.

Regarding `O=C(CN1C(=O)NC(Cc2ccccc2)C1=O)Nc1ccc(F)cc1` (configuration not stated), the Potency is inactive: > 76.9 µM. Next, `COC(=O)c1ccccc1NC(=O)CSc1ccccn1`: inactive: > 76.9 µM. Take `Cc1cc(C)n(C(=O)c2ccc(S(=O)(=O)N3CCCC3)cc2)n1`: the Potency is inactive: > 76.9 µM. `CC(C)C1N=C2c3ccccc3N=C(SCc3cc(=O)n4ccccc4n3)N2C1=O` (configuration not stated): the Potency is inactive: > 76.9 µM. On to `Cc1c(C(=O)O)oc2ccc(S(=O)(=O)NCc3ccc(F)cc3)cc12`, for which the Potency is inactive: > 76.9 µM. As to `O=C(Cc1ccccc1)Nc1cccc(N2CCCC2)c1`, the Potency was inactive: > 76.9 µM. Next, `CCn1cnc2cc(NCc3ccncc3)ccc21`: inactive: > 76.9 µM; `Cc1cc(=O)n(-c2ccc3ccccc3n2)[nH]1`: inactive: > 76.9 µM. The figure for `Cc1sc2ncn3ncnc3c2c1C` is inactive: > 76.9 µM; for `O=S1(=O)CCN2C(Cc3ccc(SC(F)F)cc3)=CSC2=N1` it is inactive: > 76.9 µM. For `Clc1ccc(OCc2nn3c(-c4ccccc4)nnc3s2)c(Cl)c1`, the Potency is inactive: > 76.9 µM.

Take `COc1ccc(CC(NC(C)=O)C(=O)NC2CCN(S(=O)(=O)c3ccccc3)CC2)cc1OC` (configuration not stated): the Potency is inactive: > 76.9 µM. Consider `O=S(=O)(NCc1ccco1)c1ccc2c(c1)Cc1ccccc1-2`, for which the Potency is inactive: > 76.9 µM.

In the case of `COc1ccc2nc(NC(=O)CSc3nnc4n3C(C)(C)Cc3ccccc3-4)sc2c1`, the Potency was inactive: > 76.9 µM. On to `CCN(CC)S(=O)(=O)c1ccc(C(=O)Nc2c3c(nn2C(C)(C)C)CS(=O)(=O)C3)cc1`, for which the Potency is inactive: > 76.9 µM. The figure for `Cc1cc(=O)[nH]c(/N=C(/NC(=O)c2ccccc2)Nc2ccc3c(c2)OCCO3)n1` is inactive: > 76.9 µM.

Regarding `c1c2c(cc3sc(N4CCOCC4)nc13)OCCO2`, the Potency is inactive: > 76.9 µM.

Take `CCOCCCN1CC(C(=O)NCCc2ccc(C)cc2)CC1=O` (configuration not stated): the Potency is inactive: > 76.9 µM. Next, `O=C(O)CC(c1ccc(Cl)cc1)N1C(=O)CCC1=O` (configuration not stated): inactive: > 76.9 µM; `CCOC(=O)c1[nH]c2ccc(F)cc2c1NC(=O)C(C)N1CCc2cc(OC)c(OC)cc2C1` (configuration not stated): inactive: > 76.9 µM.

As for `Cc1ccc(C)n1NC(=O)c1ccco1`, the Potency is inactive: > 76.9 µM.

On to `Cn1c(SCC(=O)Nc2ccc(N3CCOCC3)c(Cl)c2)nnc1C(O)c1ccccc1` (configuration not stated), for which the Potency is inactive: > 76.9 µM. On to `CC1(C)CC(=O)N(CC(=O)O)c2ccccc2S1`, for which the Potency is inactive: > 76.9 µM. Next, `CCOC(=O)C1=C(C)NC(C)=C(C(=O)OCC)C1`: inactive: > 76.9 µM; `CCOP(=O)(c1ccc(N(C)C)cc1)C(O)c1cc(OC)c(OC)c(OC)c1` (configuration not stated): inactive: > 76.9 µM. Turning to `CC1CN(C(=O)Cn2cnc3c2c(=O)n(C)c(=O)n3C)CC(C)O1` (configuration not stated), the Potency was inactive: > 76.9 µM. As to `CCC(C)(C)n1nnnc1C(c1ccc(C)cc1)N1CCCC1` (configuration not stated), the Potency is inactive: > 76.9 µM. In the case of `Cn1nc(C(=O)Nc2ccc(S(=O)(=O)N3CCCCC3)cc2)ccc1=O`, the Potency is inactive: > 76.9 µM. The figure for `Cc1c(C(=O)O)oc2c1C(O)CCC2` (configuration not stated) is inactive: > 76.9 µM.

`CN(C)C=Nc1nonc1N`: the Potency is inactive: > 76.9 µM. `CCOc1cc2[nH]c(=O)n(CCc3ccc(OC)c(OC)c3)c(=O)c2cc1OCC`: the Potency is inactive: > 76.9 µM.

Take `CCOC(=O)c1cnc(-c2cccc(OC)c2)[nH]c1=O`: the Potency is inactive: > 76.9 µM. For the compound `O=C(Nc1ccc(N2CCOCC2)cc1)Nc1ccc2nc(-c3ccco3)c(-c3ccco3)nc2c1`, the Potency is inactive: > 76.9 µM. Next, `CCOC(=O)CSc1nnc(NCC(=O)OC(C)C)c(=O)[nH]1`: inactive: > 76.9 µM; `Cc1ccc(C)c(C(=O)NCc2ccncc2)c1`: inactive: > 76.9 µM.
